Data from paper PMC2757915, “The Elongator Complex Interacts with PCNA and Modulates Transcriptional Silencing and Sensitivity to DNA Damage Agents” (PLoS Genetics, 2009).
Results are given in words; binding and its absence hold for the method and conditions named. Some entries that bind do so weakly or less than the wild type. Values belong to the molecule of their own block, whether it stands above or below them.

Chains of the proteins cited; added tags and fusions are not shown.
UniProt P15873: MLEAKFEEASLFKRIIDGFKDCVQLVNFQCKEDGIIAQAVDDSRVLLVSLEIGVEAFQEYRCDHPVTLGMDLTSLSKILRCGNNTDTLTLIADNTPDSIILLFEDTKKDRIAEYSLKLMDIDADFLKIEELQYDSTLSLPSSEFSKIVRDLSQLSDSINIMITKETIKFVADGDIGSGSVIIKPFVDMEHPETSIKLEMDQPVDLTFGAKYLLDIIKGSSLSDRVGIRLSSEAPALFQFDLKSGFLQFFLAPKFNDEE

How the values were obtained:
[1] = target: T1, Elp5-TAP (S. cerevisiae) (UniProt P38874); experiment: tandem affinity purification; Elp3-TAP, Elp5-TAP or Cac2-TAP purified from equal amounts of yeast cells (wild type; Elp3-TAP also from cac1Δ), co-purified proteins detected by Ponceau S staining and Western blot with antibodies against CBP and PCNA
T1 sequence: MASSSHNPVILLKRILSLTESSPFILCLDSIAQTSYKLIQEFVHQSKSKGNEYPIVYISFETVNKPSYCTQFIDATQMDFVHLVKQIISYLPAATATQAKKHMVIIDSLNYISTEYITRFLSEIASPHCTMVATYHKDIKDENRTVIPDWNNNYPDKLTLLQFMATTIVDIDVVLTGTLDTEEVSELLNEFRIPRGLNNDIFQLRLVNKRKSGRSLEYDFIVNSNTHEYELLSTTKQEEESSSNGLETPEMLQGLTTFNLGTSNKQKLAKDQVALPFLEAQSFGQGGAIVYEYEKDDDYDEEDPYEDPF

[2] = target: T2, Elp3-TAP (S. cerevisiae) (UniProt Q02908); experiment: as above
T2 sequence: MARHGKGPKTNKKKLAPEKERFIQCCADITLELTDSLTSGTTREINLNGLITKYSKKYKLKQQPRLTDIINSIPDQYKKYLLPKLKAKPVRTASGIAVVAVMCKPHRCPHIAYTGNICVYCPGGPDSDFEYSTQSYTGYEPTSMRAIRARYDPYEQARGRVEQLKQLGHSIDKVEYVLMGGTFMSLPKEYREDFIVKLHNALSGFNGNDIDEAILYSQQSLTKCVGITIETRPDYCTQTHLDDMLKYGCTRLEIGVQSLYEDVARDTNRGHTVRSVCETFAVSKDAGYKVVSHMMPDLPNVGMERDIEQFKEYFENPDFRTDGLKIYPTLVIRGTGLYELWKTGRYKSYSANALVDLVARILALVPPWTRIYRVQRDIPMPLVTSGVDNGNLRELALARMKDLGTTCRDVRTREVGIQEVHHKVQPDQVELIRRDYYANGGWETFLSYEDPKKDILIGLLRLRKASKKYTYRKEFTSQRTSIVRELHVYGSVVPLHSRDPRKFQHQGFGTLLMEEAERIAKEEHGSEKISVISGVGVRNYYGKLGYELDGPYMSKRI

[3] = target: T1, Elp5-TAP (S. cerevisiae); experiment: tandem affinity purification; TAP-tagged subunit purified from yeast lysate (IgG sepharose, TEV elution, calmodulin beads; buffer A 25 mM Tris pH 8.0, 100 mM NaCl), co-purified proteins on SDS-PAGE, silver staining; strains: wild type, elp3Δ, or elp3Δ with plasmids for wild type Elp3 or elp3 mutants
[4] = target: T2, Elp3-TAP (S. cerevisiae); experiment: as above
[5] = target: T3, Elp1-TAP (S. cerevisiae) (UniProt Q06706); experiment: as above
T3 sequence: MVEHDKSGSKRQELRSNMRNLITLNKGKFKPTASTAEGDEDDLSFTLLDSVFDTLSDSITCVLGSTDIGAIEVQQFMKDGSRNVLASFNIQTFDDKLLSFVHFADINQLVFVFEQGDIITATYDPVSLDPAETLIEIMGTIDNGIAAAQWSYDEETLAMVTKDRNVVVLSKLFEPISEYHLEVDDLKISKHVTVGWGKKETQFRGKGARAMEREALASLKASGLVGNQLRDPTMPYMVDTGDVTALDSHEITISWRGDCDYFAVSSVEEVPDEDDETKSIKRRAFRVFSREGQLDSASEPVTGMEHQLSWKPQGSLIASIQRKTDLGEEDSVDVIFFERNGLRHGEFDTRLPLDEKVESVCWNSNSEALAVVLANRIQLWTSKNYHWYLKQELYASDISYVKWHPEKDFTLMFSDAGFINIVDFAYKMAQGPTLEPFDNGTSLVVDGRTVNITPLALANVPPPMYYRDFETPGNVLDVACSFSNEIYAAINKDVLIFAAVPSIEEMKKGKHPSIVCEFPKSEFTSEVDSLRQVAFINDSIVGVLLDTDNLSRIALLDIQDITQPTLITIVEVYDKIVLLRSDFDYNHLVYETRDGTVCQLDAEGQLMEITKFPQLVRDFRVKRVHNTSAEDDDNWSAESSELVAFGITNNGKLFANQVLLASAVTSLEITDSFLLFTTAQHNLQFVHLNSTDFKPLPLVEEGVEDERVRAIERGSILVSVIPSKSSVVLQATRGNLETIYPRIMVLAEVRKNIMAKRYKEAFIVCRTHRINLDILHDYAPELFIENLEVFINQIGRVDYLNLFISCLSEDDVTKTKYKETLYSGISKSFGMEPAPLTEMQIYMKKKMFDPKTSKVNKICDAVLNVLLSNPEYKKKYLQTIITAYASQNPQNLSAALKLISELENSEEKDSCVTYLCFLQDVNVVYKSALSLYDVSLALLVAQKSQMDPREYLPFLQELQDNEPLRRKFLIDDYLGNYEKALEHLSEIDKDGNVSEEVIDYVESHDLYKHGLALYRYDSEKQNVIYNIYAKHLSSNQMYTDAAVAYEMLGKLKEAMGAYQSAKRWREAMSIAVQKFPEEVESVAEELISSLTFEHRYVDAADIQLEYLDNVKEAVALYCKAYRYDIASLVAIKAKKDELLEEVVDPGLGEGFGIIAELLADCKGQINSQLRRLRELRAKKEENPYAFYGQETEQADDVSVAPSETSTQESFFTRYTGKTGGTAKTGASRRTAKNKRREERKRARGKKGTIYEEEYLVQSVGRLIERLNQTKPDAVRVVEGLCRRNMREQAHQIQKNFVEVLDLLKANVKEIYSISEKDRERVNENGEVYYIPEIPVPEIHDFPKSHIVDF

binding [1]: binds
binding [2]: binds
Molecule: proliferating cell nuclear antigen (PCNA), endogenous in yeast (from UniProt P15873 1-258)

binding [3]: binds
binding [4]: binds
binding [5]: binds
B1: Elp6 (protein, UniProt Q04868 1-273)
chain: MGSVQRQDLVLFSDQSVLPAHFFQDSNSHNLFFITHQSCTQPLWMINALVETHVLGSPSSLNESSSSMLPSSTRSHAVLASFIHEQNYFTNSLNKLKIPSNNYNVLDFLSDFIVNNIHNKPRDKILSDVLAKFSAAIQNNPTDTIVIIEQPELLLSLVSGLTCSELNNKFITPLLRQCKVLIIVSNSDIFNIDEYDASVHSSNLQNFYKSSFIKSMINLNLNPLKTGFAKDVTGSLHVCRGGAPIATSNTSLHVVENEYLYLNEKESTKLFYR

binding [4]: binds
binding [5]: binds
B2: Elp5 (protein, UniProt P38874 1-309)
chain: T1 sequence

binding [3]: binds
binding [4]: binds
binding [5]: binds
B3: Elp4 (protein, UniProt Q02884 1-456)
chain: MSFRKRGEILNDRGSGLRGPLLRGPPRTSSTPLRTGNRRAPGNVPLSDTTARLKKLNIADESKTKMGLDSSHVGVRPSPATSQPTTSTGSADLDSILGHMGLPLGNSVLVEEQSTTEFHSILGKLFAAQGIVHNRISDSSADKTRNGDTHVIVLSLNQMFAKELPGIYKGSRKQMKKNLISEEESKVTVQNLNETQRSTPSRYKDLKIAWKYKLADEKRLGSPDRDDIQQNSEYKDYNHQFDITTRLMPAPIASELTFIAPTQPVSTILSQIEQTIKRNDKKLIRIVIPSLLHPAMYPPKMFESSEIIGLMHGVRSLVKKYYERVVLFASISIDIITPPLLVLLRNMFDSVINLEPFNQEMTEFLERVYKSQPGKIQHGLVHILKLPVFTDRGEMRVLKSEWAFKNGRKKFEIEQWGIPVDDAEGSAASEQSHSHSHSDEISHNIPAKKTKISLDY
